In PubChem BioAssay (NCI):
“And” between values parts separate entries of the source, which are not always exact repeats. Identical values can stand only once.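 Tested at 5 concentrations; 48 h exposure; 96-well plates; endpoints linearly interpolated, else capped at highest concentration. Abbreviation: GI50, concentration required for 50% inhibition of growth. At the TGI there is no net growth.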

Tested on: NCI-H322M lung
Assay: NCI anticancer screen, dose series, 48 h

Structure (SMILES) | TGI | GI50
O=C(NO)c1ccc(C(=O)NO)cc1 | > 100 µM | –
COc1cc2c(cc1O)[C@H](C)C(c1ccc(Cl)cc1)O2 (some centres undefined) | > 100 µM | –
COc1ccc(C2CC(c3cc4c(C)c(C(=O)c5ccccc5)oc4cc3O)=Nc3ccccc3S2)cc1OC (centres undefined) | > 100 µM | –
O=C(/C=C/c1ccc(OCCCCCCCCCCOc2ccc(/C=C/C(=O)c3ccc(Cl)cc3)cc2)cc1)c1ccc(Cl)cc1 | > 100 µM | –
COC(=O)OC[C@H]1O[C@@H](n2cc(C)c(=O)[nH]c2=O)CC1OC(=O)OC (some centres undefined) | > 100 µM | –
CCCC[C@@H]1NC(=O)[C@H](CCCCN)NC(=O)[C@H](CCCNC(=N)N)NC(=O)[C@H](CC(C)C)NC(=O)[C@@H](NC(=O)[C@H](Cc2cccc(Cl)c2)NC(=O)[C@@H]2CCCN2C(=O)[C@@H](NC(C)=O)C(C)C)CCSSC[C@@H](C(=O)N[C@@H](CCCCN)C(=O)N2CCC[C@H]2C(=O)N2CCC[C@H]2C(=O)N[C@@H](CCC(=O)O)C(N)=O)NC(=O)[C@H](Cc2ccccc2)NC(=O)[C@H](CO)NC(=O)[C@H](C)NC(=O)[C@@H]2CCCN2C1=O | > 50 µM | > 50 µM
COc1ccc(-c2nc3ncccn3c2-c2ccc(S(C)=O)cc2)cc1 (centres undefined) | > 100 µM | –
CC(=O)O[C@]1(C(C)=O)CC[C@H]2[C@@H]3C[C@H](C)C4=CC(=O)C=C[C@]4(C)[C@@]3(F)[C@@H](O)C[C@@]21C | > 100 µM | –
Cc1c(Cl)cccc1NC(=O)CC1Sc2ccccc2NC1=O (centres undefined) | 88.1 µM and 80.9 µM | –
O=C1c2ccn(CCCCN3CCOCC3)c2C(=O)c2c1c(O)c1ccccc1c2O | 8.43 µM | 1.96 µM
CO/N=C(\c1ccccc1)c1cnn(-c2ccccc2)c1N | > 25 µM | > 25 µM
CN(C)CCNC(=O)c1ccc2ccc3cccnc3c2n1 | 47.5 µM | –
O=C(NC1CCCCC1)c1c(O)[nH]c(=S)[nH]c1=O | > 100 µM | –
NCCC1(N)CCNCC1 | > 100 µM | –
CC12CC3c4ccccc4CN1C3(c1ccccc1)OC2=O (centres undefined) | > 100 µM | –
On1c(-c2ccccc2)c(-c2c(-c3ccccc3)n(O)c3ccccc23)c2ccccc21 | > 100 µM | –
C[N+]1(C)CC=C(N2CCOCC2)CC1 | > 10 µM | –
COc1cc2c(cc1OC)C13CCN4CC5=CCOC(CC(=O)O)C(C5CC41)C3N2 (centres undefined) | > 100 µM | –
CCOc1ncn(-c2ccc(NC(=S)Nc3cccc(O)c3)cc2)n1 | > 100 µM | –
O=C1Nc2ccc(F)c3c(OCCO)cc(-c4ccc[nH]4)c1c23 | 9.9 µM | 1.75 µM
Cc1ccc(N=Nc2c(O)c3ccccc3[nH]c2=O)c(S(=O)(=O)N(C)C)c1 | > 100 µM | –
Cc1oc2ccccc2c(=O)c1Cn1nnc2ccccc21 | > 100 µM | –
CC(=O)N[C@@H](Cc1ccc(O)cn1)C(=O)NCc1cccc(F)c1 | > 100 µM | –
N/C(CC/C(N)=N\O)=N\O | > 100 µM | –
CSc1n[nH]c(N)c1C(=O)Nc1ccc(Cl)cc1 | > 100 µM | –

Structure (SMILES) | TGI | GI50
Brc1c[n+](Cc2ccc3ccccc3c2)cn1Cc1ccc2ccccc2c1 | 7.93 µM | 2.31 µM
COc1ccc(C(=O)C2CC3(CCC2(O)c2ccc(OC)cc2)CC(=O)Nc2ccccc2C3=O)cc1 (centres undefined) | > 100 µM | –
Cc1ccc(S(=O)(=O)N(C)C)cc1[N+](=O)[O-] | > 100 µM | > 100 µM
OCC1SC(n2cnc3cncnc32)C(O)C1O (centres undefined) | > 100 µM | > 100 µM
COc1c(C2(c3ccc(F)cc3)SCCCS2)c(=O)c1=O | > 100 µM | –
COc1ccc(OC)c(/C=C/[N+](=O)[O-])c1 | 14.8 µM and 14.3 µM | –
CN(C(=O)c1ccc(F)cc1C(F)(F)F)C1CCN(c2nnc(-c3ccnn3C)c3ccccc23)CC1 | > 100 µM | > 83.1 µM
COc1ccc(-c2cc(C(=O)Nc3cccc(C(F)(F)F)c3)[nH]c(=S)n2)cc1 | > 100 µM | –
CC1(C)CCc2c(cc3c(c2O)CCC(C)(C)O3)O1 | > 100 µM | –
O=C1CC(NC(=O)C(F)(F)F)c2c(Br)sc(N3CCC(c4ccccc4)CC3)c21 (centres undefined) | > 100 µM | –
c1ccc2c(c1)O[As](O[As]1Oc3ccccc3O1)O2 | 19.9 µM | 5.18 µM
CCOc1ccc(NC(=O)Nc2cc(C(C)C)ccc2C)cc1 | 10.6 µM | 2.82 µM
Cn1ncc2cc(-c3cnc(N)c(Cl)c3N3CCC4(CCNC4=O)CC3)ccc21 | > 100 µM | 73.6 µM
COC1=CC(c2ccc[nH]2)=N/C1=C\c1[nH]c(C)c(C(=O)CCC(=O)Oc2ccc3c(c2)CCC2C3CC[C@]3(C)C(=O)CC[C@@H]23)c1C (some centres undefined) | > 100 µM | 31.7 µM
CSc1nc2c(c(N(C)C)n1)C=Nn1c(nc3ccccc31)S2 | > 100 µM | –
FC(F)(F)c1cc(Nc2ccc3c(OCCCN4CCOCC4)cccc3n2)ccc1Cl | 8.33 µM | 2.52 µM
COc1nc(OC)c2c(=O)oc(-c3ccccc3)cc2n1 | > 100 µM | –
CCC1(O)C=CC(=O)C=C1 | > 100 µM | –
Nc1c(Br)cc(-c2cc(Br)c(N)c(Br)c2)cc1Br | > 100 µM | –
COC(=O)OCC1OC(N2C(=O)NC(=O)C(I)C2N=[N+]=[N-])CC1OC(=O)OC (centres undefined) | > 100 µM | –
CCOC(C)OCC#CCCBr (centres undefined) | > 100 µM | –
Cc1ccc(-c2cc(-c3ccco3)nc(N)n2)o1 | > 100 µM | –
N#Cc1[nH]c(=O)n(-c2ccc([N+](=O)[O-])cc2)c1N | > 10 µM | –
COC1/C=C/O[C@@]2(C)Oc3c(C)c(O)c4c(O)c(cc(O)c4c3C2=O)NC(=O)/C(C)=C\C=C\[C@H](C)C(O)[C@@H](C)[C@@H](O)[C@@H](C)[C@H](OC(C)=O)[C@@H]1C (some centres undefined) | 29.6 µM and 132 µM | 15.7 µM and 43.7 µM
O=S(=O)(O)c1cc(Cl)c(O)c2ncc(Cl)cc12 | > 100 µM | –

Structure (SMILES) | TGI | GI50
O=C(NCCNCCO)N/N=C/c1cccc([N+](=O)[O-])c1 | > 100 µM | –
CN(C)CC1CCC/C(=C\c2ccc(N(C)C)cc2)C1=O (centres undefined) | 31.7 µM | –
CN1CC(c2ccccc2)=Cc2c1ccc(N)c2N=N | > 100 µM | –
CCOn1cc(C[C@@]2(O)C(=O)OC3[C@@H](O)CO[C@@]32O)c2ccccc21 (some centres undefined) | > 100 µM | –
O=C(Cn1ccnc1[N+](=O)[O-])N(CCO)CCO | > 1250 µM | > 1250 µM
N#CC(c1ccc(O)cc1)N1CCN(C(C#N)c2ccc(O)cc2)CC1 (centres undefined) | > 100 µM | –
Oc1c(OCc2nnc(CCCCCCCCc3nnc(COc4ccc5ccccc5c4O)n3Nc3ccccc3)n2Nc2ccccc2)ccc2ccccc12 | 44.9 µM | –
CC(C)(C)c1nc2c(o1)C(=Nc1ccccc1)c1ccccc1C2=O | 33.5 µM | –
O=C(Cc1ccc(Cl)c(Cl)c1)NCCCN1CCN(CCCN2CCCCC2)CC1 | 32.8 µM | –
C=CC1CC12C(=O)C1OC2(C)C2C(=O)c3ccccc3C(=O)C12 (centres undefined) | > 91.8 µM | > 43.3 µM
COc1ccc(CNc2cc(OC)cc(OC)c2)cc1 | > 100 µM | –
C1=C2SSC3=CC=C(SSc4ccc(s4)SSC4=CC=C(SSC(=C1)S2)S4)S3 | > 100 µM | –
COc1cc2c(cc1OC)C(=O)N(c1ccc(O)cc1)C2 | > 100 µM | –
CCCCCCCCCCCCNC(=O)NCC(OCC)OCC | > 10 µM | –
O=S(=O)(O)c1ccc(NN(c2c(O)ccc3ccccc23)S(=O)(=O)O)cc1 | > 100 µM | –
CCCCCCCCCCCCCCCC[N+](C)(C)Cc1ccc(C[N+](C)(C)CCCCCCCCCCCCCCCC)cc1 | > 100 µM | –
N=C(N)/N=C(/C=C/c1ccccc1)CC1OC(=O)c2ccccc21 (centres undefined) | > 100 µM | –
O=C(CCSC(CC(=O)c1ccc(Cl)cc1)c1ccc(Cl)cc1)Nc1ccc(Cl)cc1 (centres undefined) | 22.7 µM | –
COc1ccc2c(c1)O/C(=C\c1cccc(OCC(=O)Nc3nc4ccccc4s3)c1)C2=O | > 100 µM | > 94.4 µM
COc1ccc(-c2cc3cccc(OC)c3c(=O)o2)cc1OC | > 100 µM | > 100 µM
CS(=O)(=O)c1nccc(-c2c(-c3cccc(OCc4ccc(F)cc4)c3)nc3sccn23)n1 | 7.4 µM | 2.95 µM
O=C(C=P(c1ccccc1)(c1ccccc1)c1ccccc1)C12CC3CC(CC(C3)C1)C2 | 29.9 µM | –
O=C1CCC2(c3ccc(F)cc3)Nc3ccccc3N12 (centres undefined) | > 100 µM | –
CC(=O)[CH-]C(=O)c1ccccc1.CC(=O)[CH-]C(=O)c1ccccc1.[Nd+3].[OH-].[OH3+] | > 100 µM | > 100 µM
Oc1ccc(-c2cc(-c3c(O)cc(O)cc3O)on2)cc1 | > 100 µM | –

Structure (SMILES) | TGI | GI50
CS(=O)(=O)NNS(=O)(=O)c1ccc(Br)cc1 | > 100 µM | –
COc1ccc(NC(=S)NN=C(C)c2cccc(C(C)=NNC(=S)Nc3ccc(OC)cc3)n2)cc1 | 37.8 µM | –
CN(C(=O)C1CCCCC1)c1ccccc1I(=O)=O | > 100 µM | > 100 µM
Cc1ccc(NS(=O)(=O)c2ccc(-c3cnc(C4CC4)o3)cc2)cc1 | 25 µM | 6.18 µM
O=S(=O)(Nc1ccc(-c2nc(-c3cccc(OCCN4CCOCC4)c3)c(-c3ccnc(Br)c3)[nH]2)cc1)c1ccccc1 | > 100 µM | 5.09 µM
[N-]=N[N+]#I1OC(C(F)(F)F)(C(F)(F)F)c2ccccc21 | 32.1 µM | –
c1cc(-c2cscc2-c2ccsc2)cs1 | > 100 µM | –
CCOC(=O)C1(Cc2ccc(C)cc2)Cc2ccc(C)cc2C1=O (centres undefined) | > 100 µM | –
COC(=O)[C@]1(C)CCCn2c(=O)n(-c3ccccc3)c(=O)n21 | > 100 µM | –
COc1ccc(-n2sc3ncc(-c4ccccc4)cc3c2=O)cc1 | > 100 µM | –
COC(=O)C1Cc2c(C)cccc2C1=O (centres undefined) | > 100 µM | –
N#C/C(=C\c1ccc(CP(=O)(O)O)cc1)C(N)=O | > 100 µM | –
CC1=CC[C@@H]2[C@@H](CC[C@@]2(C)O)C(C)(C)[C@H]1CC[C@@H]1[C@@]2(C)CCC(=O)C(C)(C)O[C@@H]2CC[C@]1(C)O | > 100 µM | –
COc1ccc2c(c1O)-c1c(OC)c(OC)cc3c1[C@H](C2)[N+](C)(C)CC3 | > 100 µM | –
COc1c2cc(C(C)(C)C)cc1CSCc1cc(C(C)(C)C)cc(c1OC)CCCCC2 | > 50 µM | –
CS(=O)(=O)C1S(=O)(=O)OCCOS1(=O)=O | > 100 µM | –
O=C(CCN1CCCCC1CCO)Nc1ccc2c(c1)C(=O)c1ccc(NC(=O)CCN3CCCCC3CCO)cc1C2=O (centres undefined) | 15.3 µM | –
NC1=CN(CCCO)C2=N/C(=C\c3ccco3)C(=O)N12 | > 100 µM | –
CCc1nc2c(O)ccc(O)c2nc1C | 32.7 µM | –
C=C1C(=O)O[C@H]2[C@H]1CC/C(COC(=O)OCCCCCOC(=O)OC/C1=C/CC[C@@]3(C)O[C@H]3[C@H]3OC(=O)C(=C)[C@@H]3CC1)=C\CC[C@@]1(C)O[C@@H]21 | 13.7 µM | 3.51 µM
CCOC(=O)c1cc2cc(Cc3ccc4[nH]c(C(=O)OCC)cc4c3)ccc2[nH]1 | > 100 µM | –
COc1ccc2c(c1)Oc1nc(N)c(C#N)c(N)c1C2Sc1ccc(SC)cc1 (centres undefined) | 3.07 µM | 1.69 µM
C=CCN1C(=O)CS/C1=N\NC(=O)c1c(C)nc2sccn12 | > 100 µM | –
COc1cc2c(cc1OC)C1c3ccccc3C(C#N)(C2)N(C(=O)c2ccccc2)C1O (centres undefined) | > 100 µM | –
